# Measurements: the supplement of paper PMC8728848
# Some of the results follow.
# B1: FliD (Clostridium difficile) (protein)
# chain: MSSISPVRVTGLSGNFDMEGIIEASMIRDKEKVNKAKQDQQIVKWKQEIYRDIIKESKNLYDKYLNGDSPNSITNKKAYSATRITSSDESIIVAKGSAGAEKINYQFAVSQMAEPAKVTIKLNSSDPIVQQFPPNASGASSLNIGGVNIPISEQDTTSTIVSKINSLCADNDIRASYSEMTGELIISRKQTGSSSDIDLKVIGNDSLAGQIASDNGITFTTDASGTKSAVVYGKNLEADVTDDQGRVTHISKEQNSFKIDNIDYNVNSKGSAKLVSVTDTEEATKNMKAFVDDYNALMDKVYGLVTTKKSKDYPPLTDEQKDDMTTEEIEKWEKKAKEGILRNDDELRAFVEDIQSMFFGDADTIIALRKLGISEHENYNKKGQISFNADTFSKALIDDSDKVYKALAGYSSNYDDKGMFEKLKKIVFEYSGSSASKLTKKAGMENSSSASQNVYSKQIAEQERNISRLVEKMNDKEKRLYAKYSALESLLNKYSSQMNYFSQAQGN
# Legend:
# Experiment in all cases: glycan array binding signal (z-score within array); higher = stronger binding
# Conditions in all cases: glycan notation: IUPAC condensed, linker removed
# Gal(b1-3)Gal = molecular target: Gal(b1-3)Gal
# Summary of the method: (§1)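 From the Consortium for Functional Glycomics database, 3228 arrays were curated, keeping only those whose protein sequence was available. Binding is given as a within-array Z-score averaged across arrays sharing a protein sequence and across linkers. Negative Z-scores can be read as non-binding.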
# Gal(b1-3)Gal(b1-4)GlcNAc = molecular target: Gal(b1-3)Gal(b1-4)GlcNAc
# Summary of the method: as §1
# Gal(b1-3)GalNAc = molecular target: Gal(b1-3)GalNAc
# Summary of the method: as §1
# [1] = molecular target: Gal(b1-3)GalNAc(a1-3)[Fuc(a1-2)]Gal(b1-4)Glc
# Summary of the method: as §1
# [2] = molecular target: Gal(b1-3)GalNAc(a1-3)[Fuc(a1-2)]Gal(b1-4)GlcNAc
# Summary of the method: as §1
# Gal(b1-3)GalNAc(b1-3)Gal = molecular target: Gal(b1-3)GalNAc(b1-3)Gal
# Summary of the method: as §1
# [3] = molecular target: Gal(b1-3)GalNAc(b1-3)Gal(a1-4)Gal(b1-4)Glc
# Summary of the method: as §1
# [4] = molecular target: Gal(b1-3)GalNAc(b1-4)Gal(b1-4)Glc
# Summary of the method: as §1
# [5] = molecular target: Gal(b1-3)GalNAc(b1-4)[Neu5Ac(a2-3)]Gal(b1-4)Glc
# Summary of the method: as §1
# Gal(b1-3)GlcNAc = molecular target: Gal(b1-3)GlcNAc
# Summary of the method: as §1
# [6] = molecular target: Gal(b1-3)GlcNAc(a1-3)Gal(b1-4)GlcNAc
# Summary of the method: as §1
# [7] = molecular target: Gal(b1-3)GlcNAc(a1-6)Gal(b1-4)GlcNAc
# Summary of the method: as §1
# Gal(b1-3)GlcNAc(b1-2)Man = molecular target: Gal(b1-3)GlcNAc(b1-2)Man
# Summary of the method: as §1
# [8] = molecular target: Gal(b1-3)GlcNAc(b1-2)Man(a1-3)[Gal(b1-3)GlcNAc(b1-2)Man(a1-6)]Man(b1-4)GlcNAc(b1-4)GlcNAc
# Summary of the method: as §1
# [9] = molecular target: Gal(b1-3)GlcNAc(b1-2)Man(a1-3)[Gal(b1-3)GlcNAc(b1-2)Man(a1-6)]Man(b1-4)GlcNAc(b1-4)[Fuc(a1-6)]GlcNAc
# Summary of the method: as §1
# [10] = molecular target: Gal(b1-3)GlcNAc(b1-2)Man(a1-3)[GlcNAc(b1-4)][Gal(b1-3)GlcNAc(b1-2)Man(a1-6)]Man(b1-4)GlcNAc(b1-4)GlcNAc
# Summary of the method: as §1
# [11] = molecular target: Gal(b1-3)GlcNAc(b1-2)[Gal(b1-3)GlcNAc(b1-6)]Man(a1-6)[Gal(b1-3)GlcNAc(b1-2)Man(a1-3)]Man(b1-4)GlcNAc(b1-4)GlcNAc
# Summary of the method: as §1
# [12] = molecular target: Gal(b1-3)GlcNAc(b1-3)Gal(b1-3)GlcNAc
# Summary of the method: as §1
# [13] = molecular target: Gal(b1-3)GlcNAc(b1-3)Gal(b1-4)Glc
# Summary of the method: as §1
# [14] = molecular target: Gal(b1-3)GlcNAc(b1-3)Gal(b1-4)GlcNAc
# Summary of the method: as §1
# [15] = molecular target: Gal(b1-3)GlcNAc(b1-3)Gal(b1-4)GlcNAc(b1-2)Man(a1-3)[Gal(b1-3)GlcNAc(b1-3)Gal(b1-4)GlcNAc(b1-2)Man(a1-6)]Man(b1-4)GlcNAc(b1-4)GlcNAc
# Summary of the method: as §1
# [16] = molecular target: Gal(b1-3)GlcNAc(b1-3)Gal(b1-4)GlcNAc(b1-2)[Gal(b1-3)GlcNAc(b1-3)Gal(b1-4)GlcNAc(b1-6)]Man(a1-6)[Gal(b1-3)GlcNAc(b1-3)Gal(b1-4)GlcNAc(b1-2)Man(a1-3)]Man(b1-4)GlcNAc(b1-4)[Fuc(a1-6)]GlcNAc
# Summary of the method: as §1
# [17] = molecular target: Gal(b1-3)GlcNAc(b1-3)Gal(b1-4)GlcNAc(b1-3)Gal(b1-4)GlcNAc(b1-2)[Gal(b1-3)GlcNAc(b1-3)Gal(b1-4)GlcNAc(b1-3)Gal(b1-4)GlcNAc(b1-6)]Man(a1-6)[Gal(b1-3)GlcNAc(b1-3)Gal(b1-4)GlcNAc(b1-3)Gal(b1-4)GlcNAc(b1-2)Man(a1-3)]Man(b1-4)GlcNAc(b1-4)[Fuc(a1-6)]GlcNAc
# Summary of the method: as §1
# [18] = molecular target: Gal(b1-3)GlcNAc(b1-3)Gal(b1-4)GlcNAc(b1-6)[Gal(b1-3)GlcNAc(b1-3)]Gal(b1-4)Glc
# Summary of the method: as §1
# [19] = molecular target: Gal(b1-3)GlcNAc(b1-3)Gal(b1-4)[Fuc(a1-3)]GlcNAc
# Summary of the method: as §1
# [20] = molecular target: Gal(b1-3)GlcNAc(b1-3)Gal(b1-4)[Fuc(a1-3)]GlcNAc(b1-6)[Gal(b1-3)GlcNAc(b1-3)]Gal(b1-4)Glc
# Summary of the method: as §1
# [21] = molecular target: Gal(b1-3)GlcNAc(b1-3)GalNAc
# Summary of the method: as §1
# [22] = molecular target: Gal(b1-3)GlcNAc(b1-6)Gal(b1-4)GlcNAc
# Summary of the method: as §1
# [23] = molecular target: Gal(b1-3)GlcNAc(b1-6)GalNAc
# Summary of the method: as §1
# [24] = molecular target: Gal(b1-3)GlcNAc(b1-6)[Gal(b1-3)]GalNAc
# Summary of the method: as §1
# Gal(b1-3)GlcNAc6S = molecular target: Gal(b1-3)GlcNAc6S
# Summary of the method: as §1
# [25] = molecular target: Gal(b1-3)[Fuc(a1-4)]GlcNAc
# Summary of the method: as §1
# [26] = molecular target: Gal(b1-3)[Fuc(a1-4)]GlcNAc(b1-2)Man
# Summary of the method: as §1
# [27] = molecular target: Gal(b1-3)[Fuc(a1-4)]GlcNAc(b1-2)Man(a1-3)[Gal(b1-3)[Fuc(a1-4)]GlcNAc(b1-2)Man(a1-6)]Man(b1-4)GlcNAc(b1-4)[Fuc(a1-6)]GlcNAc
# Summary of the method: as §1
# [28] = molecular target: Gal(b1-3)[Fuc(a1-4)]GlcNAc(b1-3)Gal(b1-3)[Fuc(a1-4)]GlcNAc
# Summary of the method: as §1
# [29] = molecular target: Gal(b1-3)[Fuc(a1-4)]GlcNAc(b1-3)Gal(b1-4)[Fuc(a1-3)]GlcNAc
# Summary of the method: as §1
# [30] = molecular target: Gal(b1-3)[Fuc(a1-4)]GlcNAc(b1-6)GalNAc
# Summary of the method: as §1
binder,measurement,setting,value
B1,glycan array binding signal (z-score),Gal(b1-3)Gal,-0.262
same,glycan array binding signal (z-score),Gal(b1-3)Gal(b1-4)GlcNAc,-0.236
same,glycan array binding signal (z-score),Gal(b1-3)GalNAc,-0.087
same,glycan array binding signal (z-score),[1],0.117
same,glycan array binding signal (z-score),[2],-0.18
same,glycan array binding signal (z-score),Gal(b1-3)GalNAc(b1-3)Gal,-0.2
same,glycan array binding signal (z-score),[3],-0.127
same,glycan array binding signal (z-score),[4],-0.164
same,glycan array binding signal (z-score),[5],-0.222
same,glycan array binding signal (z-score),Gal(b1-3)GlcNAc,-0.197
same,glycan array binding signal (z-score),[6],-0.293
same,glycan array binding signal (z-score),[7],-0.181
same,glycan array binding signal (z-score),Gal(b1-3)GlcNAc(b1-2)Man,0.052
same,glycan array binding signal (z-score),[8],-0.026
same,glycan array binding signal (z-score),[9],-0.117
same,glycan array binding signal (z-score),[10],-0.034
same,glycan array binding signal (z-score),[11],-0.175
same,glycan array binding signal (z-score),[12],-0.141
same,glycan array binding signal (z-score),[13],-0.245
same,glycan array binding signal (z-score),[14],-0.24
same,glycan array binding signal (z-score),[15],-0.106
same,glycan array binding signal (z-score),[16],0.01
same,glycan array binding signal (z-score),[17],0.088
same,glycan array binding signal (z-score),[18],-0.185
same,glycan array binding signal (z-score),[19],-0.209
same,glycan array binding signal (z-score),[20],-0.232
same,glycan array binding signal (z-score),[21],-0.17
same,glycan array binding signal (z-score),[22],0.007
same,glycan array binding signal (z-score),[23],-0.222
same,glycan array binding signal (z-score),[24],-0.126
same,glycan array binding signal (z-score),Gal(b1-3)GlcNAc6S,-0.148
same,glycan array binding signal (z-score),[25],-0.011
same,glycan array binding signal (z-score),[26],-0.109
same,glycan array binding signal (z-score),[27],0.269
same,glycan array binding signal (z-score),[28],-0.253
same,glycan array binding signal (z-score),[29],-0.226
same,glycan array binding signal (z-score),[30],-0.08
